Reference: ChEMBL document CHEMBL1961873, “Compounds: GSK PKIS; Assays: Nanosyn kinase panel” (2012)
For some of these results: What follows is the remainder of the data, with few or none of the strong results. The entries are a selection whose mix differs from that of the whole data set.

Assays:
[1] = molecular target: Mast/stem cell growth factor receptor Kit (Homo sapiens) (UniProt P10721); details: at 1 µM
[2] = test system: Mast/stem cell growth factor receptor Kit (Homo sapiens), P10721 [D816V]; details: at 0.1 µM
[3] = test system: Mast/stem cell growth factor receptor Kit (Homo sapiens), P10721 [D816V]; details: at 1 µM
[4] = test system: Mast/stem cell growth factor receptor Kit (Homo sapiens), P10721 [T670I]; details: at 0.1 µM
[5] = test system: Mast/stem cell growth factor receptor Kit (Homo sapiens), P10721 [T670I]; details: at 1 µM
[6] = test system: Mast/stem cell growth factor receptor Kit (Homo sapiens), P10721 [V560G]; details: at 0.1 µM
[7] = test system: Mast/stem cell growth factor receptor Kit (Homo sapiens), P10721 [V560G]; details: at 1 µM
[8] = molecular target: Tyrosine-protein kinase Lck (Homo sapiens) (UniProt P06239); details: at 0.1 µM
[9] = molecular target: Tyrosine-protein kinase Lck (Homo sapiens) (UniProt P06239); details: at 1 µM
[10] = molecular target: Leukocyte tyrosine kinase receptor (Homo sapiens) (UniProt P29376); details: at 0.1 µM
Chain of UniProt P29376 (P29376 whole entry): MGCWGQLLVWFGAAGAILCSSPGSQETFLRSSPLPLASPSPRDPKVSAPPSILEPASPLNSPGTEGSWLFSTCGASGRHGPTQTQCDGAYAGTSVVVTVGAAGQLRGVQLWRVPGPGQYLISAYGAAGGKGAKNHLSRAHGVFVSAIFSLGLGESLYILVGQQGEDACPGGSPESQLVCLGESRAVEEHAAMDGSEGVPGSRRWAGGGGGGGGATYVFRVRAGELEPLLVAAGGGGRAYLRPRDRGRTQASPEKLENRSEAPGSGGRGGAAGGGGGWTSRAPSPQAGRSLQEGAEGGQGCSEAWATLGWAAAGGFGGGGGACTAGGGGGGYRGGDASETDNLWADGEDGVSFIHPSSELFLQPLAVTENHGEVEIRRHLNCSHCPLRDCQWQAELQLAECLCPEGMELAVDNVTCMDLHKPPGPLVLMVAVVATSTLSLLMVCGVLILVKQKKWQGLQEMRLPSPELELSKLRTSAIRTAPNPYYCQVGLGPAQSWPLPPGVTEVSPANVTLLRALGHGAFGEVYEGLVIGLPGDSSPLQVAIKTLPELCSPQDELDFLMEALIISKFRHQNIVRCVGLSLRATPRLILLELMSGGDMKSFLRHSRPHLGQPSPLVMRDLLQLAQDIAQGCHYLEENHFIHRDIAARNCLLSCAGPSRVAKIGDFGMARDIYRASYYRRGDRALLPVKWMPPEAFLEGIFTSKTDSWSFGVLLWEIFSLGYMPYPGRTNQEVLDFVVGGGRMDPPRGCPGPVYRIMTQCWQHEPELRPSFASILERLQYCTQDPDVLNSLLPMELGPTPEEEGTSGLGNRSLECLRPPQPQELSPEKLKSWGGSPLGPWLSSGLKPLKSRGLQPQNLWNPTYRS

Chain of UniProt P06239 (P06239 whole entry, looked up): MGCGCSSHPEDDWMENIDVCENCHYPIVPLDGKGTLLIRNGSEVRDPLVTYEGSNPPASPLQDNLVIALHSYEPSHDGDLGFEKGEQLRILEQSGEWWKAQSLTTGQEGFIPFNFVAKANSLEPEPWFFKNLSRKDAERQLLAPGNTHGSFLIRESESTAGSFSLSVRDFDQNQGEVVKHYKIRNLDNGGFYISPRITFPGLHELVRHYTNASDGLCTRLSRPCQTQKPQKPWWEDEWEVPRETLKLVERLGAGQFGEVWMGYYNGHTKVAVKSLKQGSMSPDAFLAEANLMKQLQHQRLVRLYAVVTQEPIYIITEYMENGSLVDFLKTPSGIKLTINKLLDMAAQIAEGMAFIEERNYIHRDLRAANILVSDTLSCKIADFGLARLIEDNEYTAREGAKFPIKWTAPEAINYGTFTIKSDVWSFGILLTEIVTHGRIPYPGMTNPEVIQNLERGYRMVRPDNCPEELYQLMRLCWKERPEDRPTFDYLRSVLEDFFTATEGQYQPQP
Chain of UniProt P10721 (P10721 whole entry): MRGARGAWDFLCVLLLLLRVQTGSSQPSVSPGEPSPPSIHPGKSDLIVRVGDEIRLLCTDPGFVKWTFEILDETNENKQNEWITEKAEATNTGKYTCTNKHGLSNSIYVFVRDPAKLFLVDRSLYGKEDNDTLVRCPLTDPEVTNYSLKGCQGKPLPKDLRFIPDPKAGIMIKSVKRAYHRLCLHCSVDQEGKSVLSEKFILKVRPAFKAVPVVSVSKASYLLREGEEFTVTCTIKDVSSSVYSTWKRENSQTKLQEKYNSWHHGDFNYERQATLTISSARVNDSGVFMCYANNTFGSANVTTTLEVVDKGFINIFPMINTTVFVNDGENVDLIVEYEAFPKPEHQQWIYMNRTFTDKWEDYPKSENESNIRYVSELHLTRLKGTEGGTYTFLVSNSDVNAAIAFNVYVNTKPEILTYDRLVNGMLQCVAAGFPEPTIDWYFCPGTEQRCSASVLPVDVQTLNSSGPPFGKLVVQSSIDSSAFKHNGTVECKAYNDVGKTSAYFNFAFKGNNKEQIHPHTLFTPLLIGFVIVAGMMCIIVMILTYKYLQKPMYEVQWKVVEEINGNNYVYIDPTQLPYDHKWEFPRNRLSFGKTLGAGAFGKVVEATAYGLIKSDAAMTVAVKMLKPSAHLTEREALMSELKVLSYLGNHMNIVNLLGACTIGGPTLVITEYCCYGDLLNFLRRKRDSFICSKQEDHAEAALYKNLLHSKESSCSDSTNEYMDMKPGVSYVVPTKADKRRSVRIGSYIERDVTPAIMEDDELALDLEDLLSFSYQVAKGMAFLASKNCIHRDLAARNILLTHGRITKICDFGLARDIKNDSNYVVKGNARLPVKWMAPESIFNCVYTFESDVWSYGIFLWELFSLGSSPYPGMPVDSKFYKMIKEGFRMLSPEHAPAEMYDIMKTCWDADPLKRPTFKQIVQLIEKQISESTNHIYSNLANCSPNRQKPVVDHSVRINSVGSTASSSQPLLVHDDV

| SMILES | inhibition [1] [%] | inhibition [2] [%] | inhibition [3] [%] | inhibition [4] [%] | inhibition [5] [%] | inhibition [6] [%] | inhibition [7] [%] | inhibition [8] [%] | inhibition [9] [%] | inhibition [10] [%] |
| --- | --- | --- | --- | --- | --- | --- | --- | --- | --- | --- |
| Fc1ccc(-c2ncn(C3CCNCC3)c2-c2ccnc(Oc3ccc(Cl)cc3)n2)cc1 | 2.73 | 4.23 | -1.86 | 0.72 | 1.44 | 0.75 | 2.03 | 0.42 | 2.31 | 0.61 |
| O=C1NC(=O)C(c2ccccc2)=C1Nc1ccccc1 | 14.9 | 6.41 | 8.4 | 4.94 | 8.44 | -0.46 | 2.76 | 1.49 | 5.45 | 6.85 |
| Fc1ccc(-c2ncn(C3CCNCC3)c2-c2ccnc(Oc3cccc(C(F)(F)F)c3)n2)cc1 | -6.01 | 3.83 | 4.58 | 4.19 | 5.18 | -4.5 | -3.93 | 4.54 | 7.84 | 4.75 |
| CC(C)(C)c1ccc(Oc2nccc(-c3c(-c4ccc(F)cc4)ncn3C3CCNCC3)n2)cc1 | – | 0.68 | 5.75 | 0.89 | 4.17 | 1.09 | 0.05 | 1.62 | 4.11 | 4.61 |
| Fc1ccc(-c2ncn(C3CCNCC3)c2-c2ccnc(Oc3cccc(F)c3)n2)cc1 | 7.23 | 5.53 | 3.91 | 1.74 | 4.41 | -2.13 | -2.43 | 5.25 | 11.3 | 5.94 |
| COc1ccccc1C1=C(Nc2ccccc2)C(=O)NC1=O | 4.82 | 6.65 | 1.47 | 3.18 | 3.39 | 0.2 | 5.79 | 3.08 | 22.8 | 3.08 |
| O=C1NC(=O)C(c2ccccc2Cl)=C1Nc1cc(Cl)c(O)c(Cl)c1 | 11.8 | 2.2 | 5.52 | 2.33 | 11.9 | 1.29 | 8.54 | 2.12 | 0.12 | 2.95 |
| O=C1NC(=O)C(c2cccc([N+](=O)[O-])c2)=C1Nc1cc(Cl)c(O)c(Cl)c1 | -0.5 | 1.61 | 2.18 | 0.69 | -0.25 | 1.46 | 1.1 | 1.1 | 3.48 | 1.42 |
| O=C(O)c1ccc(Oc2nccc(-c3c(-c4ccc(F)cc4)ncn3C3CCNCC3)n2)cc1 | 5.35 | 2.94 | 2.74 | 3.36 | 4.28 | -4.07 | -2.65 | 5.34 | 1.84 | 6.24 |
| COc1ccccc1Oc1nccc(-c2c(-c3ccc(F)cc3)ncn2C2CCNCC2)n1 | 8.95 | 3.97 | 5.5 | 2.55 | 2.99 | -1.68 | 1.1 | 3.56 | 5.62 | 5.36 |
| CS(=O)(=O)c1ccc(Oc2nccc(-c3c(-c4ccc(F)cc4)ncn3C3CCNCC3)n2)cc1 | 4.75 | 1.38 | 1.44 | 2.19 | 4.47 | -1 | -2.6 | 2.2 | 3.48 | 5.06 |
| Fc1ccc(Oc2nccc(-c3c(-c4ccc(F)cc4)ncn3C3CCNCC3)n2)cc1 | 6.28 | 3.81 | 5.89 | 0.95 | 1.38 | -1.79 | 1.69 | -0.24 | -3.53 | 5.08 |
| NC(=O)CCc1ccccc1Oc1nccc(-c2c(-c3ccc(F)cc3)ncn2C2CCNCC2)n1 | -3.37 | 0.72 | 0.53 | -2.87 | -0.4 | -0.71 | 2.85 | -0.74 | 0.88 | 1.49 |
| Cc1cccc(Oc2nccc(-c3c(-c4ccc(F)cc4)ncn3C3CCNCC3)n2)c1C | 4.89 | 4.08 | 5.38 | 2.27 | 4.27 | -2.79 | -0.3 | 3.51 | 4.76 | 3.98 |
